Source: patent US20170210809A1 (DYAX, published 2017)
Blank lines part the entries; values can stand above or below the binder they belong to.

Columns and labels:
Assay in all cases: cell-based or functional assay
[1] = target: T1, IGF-1R (insulin-like growth factor 1 receptor) on tumor cells (human, UniProt P08069 31-1367)
[2] = target: T1, IGF-1R (insulin-like growth factor 1 …); remark: listed apart in the source
[3] = target: T2, ErbB3 (HER3) on tumor cells (human, UniProt P21860 20-1342)
[4] = target: T2, ErbB3 (HER3) on tumor cells; remark: listed apart in the source
T2 sequence (P21860 20-1342): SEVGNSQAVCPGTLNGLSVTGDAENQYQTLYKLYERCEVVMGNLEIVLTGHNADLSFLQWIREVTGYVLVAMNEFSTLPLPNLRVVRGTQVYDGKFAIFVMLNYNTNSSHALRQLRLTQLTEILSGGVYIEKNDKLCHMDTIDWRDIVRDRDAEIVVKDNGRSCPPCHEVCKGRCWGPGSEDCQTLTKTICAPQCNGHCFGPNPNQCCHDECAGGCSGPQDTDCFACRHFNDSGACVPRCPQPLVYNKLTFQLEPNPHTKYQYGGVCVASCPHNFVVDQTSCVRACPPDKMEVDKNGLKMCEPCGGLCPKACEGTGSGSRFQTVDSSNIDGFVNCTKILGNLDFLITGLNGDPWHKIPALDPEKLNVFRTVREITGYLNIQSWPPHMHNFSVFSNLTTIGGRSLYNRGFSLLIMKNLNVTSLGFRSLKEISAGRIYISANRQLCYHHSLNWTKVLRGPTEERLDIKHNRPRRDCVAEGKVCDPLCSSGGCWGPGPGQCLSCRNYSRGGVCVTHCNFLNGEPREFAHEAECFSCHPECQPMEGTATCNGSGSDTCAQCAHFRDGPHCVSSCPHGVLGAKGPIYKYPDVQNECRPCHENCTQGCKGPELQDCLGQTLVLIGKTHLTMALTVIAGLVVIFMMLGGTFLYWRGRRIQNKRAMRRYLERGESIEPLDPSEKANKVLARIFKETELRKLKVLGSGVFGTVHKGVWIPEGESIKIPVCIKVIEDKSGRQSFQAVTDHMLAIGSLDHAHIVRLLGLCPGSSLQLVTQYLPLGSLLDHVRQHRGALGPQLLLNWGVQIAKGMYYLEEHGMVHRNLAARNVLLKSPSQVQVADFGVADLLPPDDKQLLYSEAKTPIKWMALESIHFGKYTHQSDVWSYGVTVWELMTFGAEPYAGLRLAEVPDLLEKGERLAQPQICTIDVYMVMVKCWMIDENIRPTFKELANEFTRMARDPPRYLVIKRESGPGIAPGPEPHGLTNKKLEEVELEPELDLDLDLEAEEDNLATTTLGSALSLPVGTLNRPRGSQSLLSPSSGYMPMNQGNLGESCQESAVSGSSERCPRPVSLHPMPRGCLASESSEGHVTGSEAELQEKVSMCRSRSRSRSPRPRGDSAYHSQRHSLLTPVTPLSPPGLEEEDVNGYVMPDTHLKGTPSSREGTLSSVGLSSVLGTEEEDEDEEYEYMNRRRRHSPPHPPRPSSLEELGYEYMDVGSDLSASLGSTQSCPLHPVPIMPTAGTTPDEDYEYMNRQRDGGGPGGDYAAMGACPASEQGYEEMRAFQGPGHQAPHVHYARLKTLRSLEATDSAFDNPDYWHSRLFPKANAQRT

[5] = target: T1, IGF-1R (insulin-like growth factor 1 …); remark: listed apart in the source
[6] = target: T1, IGF-1R (insulin-like growth factor 1 …); remark: listed apart in the source

T1 sequence (P08069 31-1367): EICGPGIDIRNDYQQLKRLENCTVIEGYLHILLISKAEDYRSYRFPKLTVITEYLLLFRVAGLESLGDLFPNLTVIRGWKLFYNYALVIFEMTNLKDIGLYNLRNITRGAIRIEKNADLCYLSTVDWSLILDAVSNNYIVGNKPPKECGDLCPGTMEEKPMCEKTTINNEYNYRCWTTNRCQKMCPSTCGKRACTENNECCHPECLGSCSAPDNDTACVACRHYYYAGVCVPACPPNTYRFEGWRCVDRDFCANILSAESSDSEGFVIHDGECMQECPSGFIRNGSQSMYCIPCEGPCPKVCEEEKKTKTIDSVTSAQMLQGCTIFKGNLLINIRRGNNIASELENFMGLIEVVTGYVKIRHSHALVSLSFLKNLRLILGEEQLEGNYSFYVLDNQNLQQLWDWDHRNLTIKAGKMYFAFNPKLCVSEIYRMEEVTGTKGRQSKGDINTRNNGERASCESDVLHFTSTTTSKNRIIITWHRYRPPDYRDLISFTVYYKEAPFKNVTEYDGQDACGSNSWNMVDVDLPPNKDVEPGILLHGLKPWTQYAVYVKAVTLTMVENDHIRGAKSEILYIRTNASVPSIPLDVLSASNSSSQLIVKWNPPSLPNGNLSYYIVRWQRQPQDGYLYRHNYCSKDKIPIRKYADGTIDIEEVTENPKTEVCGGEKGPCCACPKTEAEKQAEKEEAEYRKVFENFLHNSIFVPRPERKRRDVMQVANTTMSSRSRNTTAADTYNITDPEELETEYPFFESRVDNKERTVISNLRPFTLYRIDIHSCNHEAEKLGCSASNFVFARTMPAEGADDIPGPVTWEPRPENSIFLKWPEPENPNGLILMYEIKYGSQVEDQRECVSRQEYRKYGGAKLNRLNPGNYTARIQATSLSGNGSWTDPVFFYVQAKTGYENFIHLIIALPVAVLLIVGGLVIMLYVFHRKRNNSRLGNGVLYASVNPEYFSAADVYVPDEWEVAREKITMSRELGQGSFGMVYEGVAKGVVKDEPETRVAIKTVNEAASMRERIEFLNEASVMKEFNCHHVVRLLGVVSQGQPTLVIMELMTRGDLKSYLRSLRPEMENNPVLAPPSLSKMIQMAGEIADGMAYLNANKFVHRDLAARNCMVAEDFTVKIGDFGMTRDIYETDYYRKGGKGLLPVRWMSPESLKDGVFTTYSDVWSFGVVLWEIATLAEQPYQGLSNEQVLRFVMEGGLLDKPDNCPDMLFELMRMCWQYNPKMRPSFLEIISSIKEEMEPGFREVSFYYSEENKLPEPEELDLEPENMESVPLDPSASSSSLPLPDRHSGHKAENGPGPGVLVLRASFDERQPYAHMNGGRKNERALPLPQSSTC

IC50, inhibition of IGF-1-induced pIGF-1R formation (ELISA, ADRr cells) [1]: 28 nM
Ki, inhibition of IGF2-induced pIGF-IR formation (ELISA, MCF7 cells) [2]: 16.8 nM
Ki, inhibition of IGF-1-induced pAKT formation (ELISA, MCF7 cells) [5]: 25 nM
Ki, inhibition of BTC-induced pErbB3 formation (ELISA, ADRr cells) [3]: 23 nM
Ki, inhibition of HRG-induced pErbB3 formation (ELISA, ADRr cells) [4]: 37 nM
B3: AB5-7N/AB2-3C (bispecific antibody)
chain: EVQLLESGGGLVQPGGSLRLSCAASGFTFSVYPMHWVRQAPGKGLEWVSSISSSGGATRYADSVKGRFTISRDNSKNTLYLQMNSLRAEDTAVYYCAKDFYDILTGNAFDIWGQGTMVTVSSASTGGGGSGGGGSGGGGSDIQMTQSPSSFSASTGDRVTITCRASQGISSYLAWYQQKPGKAPKLLIYAASTLQSGVPSRFSGSGSGTDFTLTISSLQPEDSATYYCQQYFTFPLTFGGGTKVEIKGAAS[letters of about 600 residues left out]AAALQEVQLLESGGGLVQPGGSLRLSCAASGFTFSAYNMRWVRQAPGKGLEWVSVIYPSGGATRYADSVKGRFTISRDNSKNTLYLQMNSLRAEDTAVYYCARGYYYYGMDVWGQGTLVTVSSASTGGGGSGGGGSGGGGSQSVLTQPPSASGTPGQRVTISCSGSDSNIGRNYIYWYQQFPGTAPKLLIYRNNQRPSGVPDRISGSKSGTSASLAISGLRSEDEAEYHCGTWDDSLSGPVFGGGTKLTVLS

IC50, inhibition of IGF-1-induced pIGF-1R formation (ELISA, ADRr cells) [1]: 6 nM
Ki, inhibition of IGF2-induced pIGF-IR formation (ELISA, MCF7 cells) [2]: 4.1 nM
Ki, inhibition of IGF-1-induced pAKT formation (ELISA, MCF7 cells) [5]: 14 nM
Ki, inhibition of BTC-induced pErbB3 formation (ELISA, ADRr cells) [3]: 6.5 nM
Ki, inhibition of HRG-induced pErbB3 formation (ELISA, ADRr cells) [4]: 1.1 nM
B4: AB2-6N/AB5-7C (bispecific antibody)
chain: EVQLLESGGGLVQPGGSLRLSCAASGFTFSHYVMAWVRQAPGKGLEWVSSISSSGGWTLYADSVKGRFTISRDNSKNTLYLQMNSLRAEDTAVYYCTRGLKMATIFDYWGQGTLVTVSSASTGGGGSGGGGSGGGGSQSALTQPASVSGSPGQSITISCTGTSSDVGSYNVVSWYQQHPGKAPKLIIYEVSQRPSGVSNRFSGSKSGNTASLTISGLQTEDEADYYCCSYAGSSIFVIFGGGTKVTVLGAAS[letters of about 600 residues left out]AAALQEVQLLESGGGLVQPGGSLRLSCAASGFTFSVYPMHWVRQAPGKGLEWVSSISSSGGATRYADSVKGRFTISRDNSKNTLYLQMNSLRAEDTAVYYCAKDFYDILTGNAFDIWGQGTMVTVSSASTGGGGSGGGGSGGGGSDIQMTQSPSSFSASTGDRVTITCRASQGISSYLAWYQQKPGKAPKLLIYAASTLQSGVPSRFSGSGSGTDFTLTISSLQPEDSATYYCQQYFTFPLTFGGGTKVEIK

IC50, inhibition of IGF-1-induced pIGF-1R formation (ELISA, ADRr cells) [1]: 3 nM
Ki, inhibition of IGF2-induced pIGF-IR formation (ELISA, MCF7 cells) [2]: 2.3 nM
Ki, inhibition of IGF-1-induced pAKT formation (ELISA, MCF7 cells) [5]: 6 nM
Ki, inhibition of BTC-induced pErbB3 formation (ELISA, ADRr cells) [3]: 5.4 nM
Ki, inhibition of IGF2-induced pAKT formation (ELISA, MCF7 cells) [6]: 1.9 nM
Ki, inhibition of HRG-induced pErbB3 formation (ELISA, ADRr cells) [4]: 3 nM
B5: AB5-7N/AB2-6C (bispecific antibody)
chain: EVQLLESGGGLVQPGGSLRLSCAASGFTFSVYPMHWVRQAPGKGLEWVSSISSSGGATRYADSVKGRFTISRDNSKNTLYLQMNSLRAEDTAVYYCAKDFYDILTGNAFDIWGQGTMVTVSSASTGGGGSGGGGSGGGGSDIQMTQSPSSFSASTGDRVTITCRASQGISSYLAWYQQKPGKAPKLLIYAASTLQSGVPSRFSGSGSGTDFTLTISSLQPEDSATYYCQQYFTFPLTFGGGTKVEIKGAAS[letters of about 600 residues left out]AAALQEVQLLESGGGLVQPGGSLRLSCAASGFTFSHYVMAWVRQAPGKGLEWVSSISSSGGWTLYADSVKGRFTISRDNSKNTLYLQMNSLRAEDTAVYYCTRGLKMATIFDYWGQGTLVTVSSASTGGGGSGGGGSGGGGSQSALTQPASVSGSPGQSITISCTGTSSDVGSYNVVSWYQQHPGKAPKLIIYEVSQRPSGVSNRFSGSKSGNTASLTISGLQTEDEADYYCCSYAGSSIFVIFGGGTKVTVL

Further lines, the binder ahead of its results:

B1: AB5-7N/AB2-21C (bispecific antibody)
chain: EVQLLESGGGLVQPGGSLRLSCAASGFTFSVYPMHWVRQAPGKGLEWVSSISSSGGATRYADSVKGRFTISRDNSKNTLYLQMNSLRAEDTAVYYCAKDFYDILTGNAFDIWGQGTMVTVSSASTGGGGSGGGGSGGGGSDIQMTQSPSSFSASTGDRVTITCRASQGISSYLAWYQQKPGKAPKLLIYAASTLQSGVPSRFSGSGSGTDFTLTISSLQPEDSATYYCQQYFTFPLTFGGGTKVEIKGAAS[letters of about 600 residues left out]AAALQEVQLLESGGGLVQPGGSLRLSCAASGFTFSVYDMYWVRQAPGKGLEWVSYIYSSGGDTDYADSVKGRFTISRDNSKNTLYLQMNSLRAEDTATYYCARASTNSIYDAMDVWGQGTTVTVSSASTGGGGSGGGGSGGGGSDIQMTQSPSSVSASVGDRVTITCRASQDITNWLAWYQQKPGKAPTLLIYDASTLQSGVPSRFSGSGSGTDFTLTISSLQPEDFATYFCQQANGFPLTFGGGTKVEIK
IC50, inhibition of IGF-1-induced pIGF-1R formation (ELISA, ADRr cells) [1]: 11 nM
Ki, inhibition of IGF2-induced pIGF-IR formation (ELISA, MCF7 cells) [2]: 0.27 nM
Ki, inhibition of BTC-induced pErbB3 formation (ELISA, ADRr cells) [3]: 0.56 nM
Ki, inhibition of HRG-induced pErbB3 formation (ELISA, ADRr cells) [4]: 1.2 nM

B2: AB2-3N/AB5-7C (bispecific antibody)
chain: EVQLLESGGGLVQPGGSLRLSCAASGFTFSAYNMRWVRQAPGKGLEWVSVIYPSGGATRYADSVKGRFTISRDNSKNTLYLQMNSLRAEDTAVYYCARGYYYYGMDVWGQGTLVTVSSASTGGGGSGGGGSGGGGSQSVLTQPPSASGTPGQRVTISCSGSDSNIGRNYIYWYQQFPGTAPKLLIYRNNQRPSGVPDRISGSKSGTSASLAISGLRSEDEAEYHCGTWDDSLSGPVFGGGTKLTVLSGAAS[letters of about 600 residues left out]AAALQEVQLLESGGGLVQPGGSLRLSCAASGFTFSVYPMHWVRQAPGKGLEWVSSISSSGGATRYADSVKGRFTISRDNSKNTLYLQMNSLRAEDTAVYYCAKDFYDILTGNAFDIWGQGTMVTVSSASTGGGGSGGGGSGGGGSDIQMTQSPSSFSASTGDRVTITCRASQGISSYLAWYQQKPGKAPKLLIYAASTLQSGVPSRFSGSGSGTDFTLTISSLQPEDSATYYCQQYFTFPLTFGGGTKVEIK
IC50, inhibition of IGF-1-induced pIGF-1R formation (ELISA, ADRr cells) [1]: 27 nM
Ki, inhibition of IGF2-induced pIGF-IR formation (ELISA, MCF7 cells) [2]: 14 nM
Ki, inhibition of IGF-1-induced pAKT formation (ELISA, MCF7 cells) [5]: 40 nM
Ki, inhibition of BTC-induced pErbB3 formation (ELISA, ADRr cells) [3]: 14.2 nM
Ki, inhibition of IGF2-induced pAKT formation (ELISA, MCF7 cells) [6]: 14.1 nM
Ki, inhibition of HRG-induced pErbB3 formation (ELISA, ADRr cells) [4]: 28 nM

B6: AB2-21N/AB5-7C (bispecific antibody)
chain: EVQLLESGGGLVQPGGSLRLSCAASGFTFSVYDMYWVRQAPGKGLEWVSYIYSSGGDTDYADSVKGRFTISRDNSKNTLYLQMNSLRAEDTATYYCARASTNSIYDAMDVWGQGTTVTVSSASTGGGGSGGGGSGGGGSDIQMTQSPSSVSASVGDRVTITCRASQDITNWLAWYQQKPGKAPTLLIYDASTLQSGVPSRFSGSGSGTDFTLTISSLQPEDFATYFCQQANGFPLTFGGGTKVEIKGAAS[letters of about 600 residues left out]AAALQEVQLLESGGGLVQPGGSLRLSCAASGFTFSVYPMHWVRQAPGKGLEWVSSISSSGGATRYADSVKGRFTISRDNSKNTLYLQMNSLRAEDTAVYYCAKDFYDILTGNAFDIWGQGTMVTVSSASTGGGGSGGGGSGGGGSDIQMTQSPSSFSASTGDRVTITCRASQGISSYLAWYQQKPGKAPKLLIYAASTLQSGVPSRFSGSGSGTDFTLTISSLQPEDSATYYCQQYFTFPLTFGGGTKVEIK
IC50, inhibition of IGF-1-induced pIGF-1R formation (ELISA, ADRr cells) [1]: 11 nM
Ki, inhibition of IGF2-induced pIGF-IR formation (ELISA, MCF7 cells) [2]: 0.74 nM
Ki, inhibition of IGF-1-induced pAKT formation (ELISA, MCF7 cells) [5]: 4 nM
Ki, inhibition of BTC-induced pErbB3 formation (ELISA, ADRr cells) [3]: 0.52 nM
Ki, inhibition of IGF2-induced pAKT formation (ELISA, MCF7 cells) [6]: 70 pM
Ki, inhibition of HRG-induced pErbB3 formation (ELISA, ADRr cells) [4]: 0.6 nM
